Data from the supplement of paper PMC8674133.
Recombinant human monoclonal antibodies (heavy:light variable regions). ELISA EC50 on the named antigen, from 10 µg/ml down; IC50 / IC90 against spike pseudovirus on 293T-ACE2 cells, 48 h; lower = stronger. Calls: IC50 above 1,000 ng/ml = non-neutralizing; EC50 above 2,000 ng/ml = non-binder. The source prints 1000 for neutralization that was not reached; it is given as >1000 ng/ml. A few antibodies were first reported in earlier work of the same group.

B1: C1314 (protein)
chain 1: VQLVESGGGVVQPGRSLRLSCAASGFTFSSYGMHWVRQAPGKGLEWVAVISYDGSNKYYADSVKGRFTISRDNSKNTLYLQMNSLRTEDTAVYYCARGWFGEEVGYYYFGLDVWGQGTTVTVSS
chain 2: QSVLTQPPSVSGAPGQRVTISCTGSSSNIGAHYDVHWYQQLPGTAPKLLIYGNSNRPSGVPDRFSGSKSGTSASLAITGLQAEDEADYYCQSYDSSLSGWVFGGGTKLTVL
B2: C1313 (protein)
chain 1: EVQLVESGGGLAQPGGSLRLSCAASGFTFSSYDMHWVRQATGKRLEWVSAIGTDGDTYYTDSVKGRFTISRENAKNSLYLQMNSLRAGDTAVYYCARAVDSSSWYSNWYFDLWGRGTLVTVSS
chain 2: DIVMTQSPDSLAVSLGERATINCKSSQSVSYSSNNKNFLAWYQQKPGQPPKLLLYWASTRESGVPDRFSGSGSGTDFTLTINTLQAEDVAVYYCQQYYTTPVITFGQGTRLEIK
B3: C1311 (protein)
chain 1: VQLVESGGGVVQPGRSLRLSCAASGFTFSYYGMHWVRQAPGKGLEWVAVISYDGNNKYYADSVKGRFTISRDNSKNTLYLQMNSLRAEDTAVYYCAKNSDYGDPSALSDDAVDIWGQGTMVTVSS
chain 2: QSVLTQPPSVSGAPGQRVTISCSGSSSNIGAGYDVHWYQQLPGTAPKLLIYGNSNRPSGVPDRFSGSKSGTSASLAITGLQAEDEADYYCQSYDSSLSVSRVFGTGTKVTVL
B4: C1199 (protein)
chain 1: QVQLVQSGAEVKKSGASVKVSCKASGYTFTSYGISWVRQAPGQGLEWMGWISTYNGDTTSAQKVQGRVTMTTDTSTNTVYMEVRSLRSDDTAVYYCARVATAYSSGWSMYFFDFWGQGTLVTVSS
chain 2: EIVMTQSPASLSVSPGERATLSCRASQSVSTNLAWYQQKPGQAPRLLIYGASTRATGIPARFSGSGSGTEFTLTISSLQSEDFAVYYCQLYDDWPPVFTFGPGTKVDIK
B5: C1316 (protein)
chain 1: QVQLVQSGAEVKKPGASVKVSCKVSGYTLTELSMHWVRQAPGKGLEWMGGFDPEDGETIYAQKFQGRVTMTEDTSTDTAYMELSSLRSEDTAVYYCATALITMVRGGEYHMDVWGQGTTVTVSS
chain 2: SYELTQPPSVSVSPGQTARITCSGDALPKQYAYWYQQKPGQAPVLVIYKDSERPSGIPERFSGSSSGTTVTLTISGVQAEDEADYYCQSADSSGLVFGGGTKLTVL
B6: C1200 (protein)
chain 1: QVQLQESGPGLVKPSETLSLTCTVSGASISSYYCSWIRQAPGKGLEWIGNIYYSGSTNYNPSLKSRVTISLDTSQNQFSLKLSSVTAADTAIYYCARSFSGDEIDFWGQGTLVTVSS
chain 2: DIQMTQSPSTLSASVGDRITITCRASQSISRWLAWYQQKPGKAPKLLIYRASSLESGVPSRFSGSGSGTEFTLTISSLQPDDFATYYCQQYNSYRTFGQGTKVEIK
B7: C1202 (protein)
chain 1: QVQLVQSGAEVRKPGSSVKVSCKASGGTFSSYAISWVRQAPGQGLEWMGGIIPIFRTANYAQRFQGRVTITADESTRTAYMELSSLRSEDTAVYYCARDLGEGILHDYGGPYYYYAMDVWGQGTTVTVSS
chain 2: EIVMTQSPATLSVSPGERATLSCRASQSVSSNLAWYQQKLGQAPRLLIYGASTRATGIPARFSGSGSETEFTLTISSLQSEDFAVYYCQQYNNWPAWTFGQGTKVEIK
B8: C1308 (protein)
chain 1: EVQLVESGGGLVQPGGSLRLSCAASGFTFSSYWMSWVRQAPGKGLEWVAYIKQDGGEKYYVDSVKGRFTISRDNTKNSLYLQMNSLRVEDTAVYYCARGRTGPYLGIDYWGQGTLVTVSS
chain 2: NFMLTQPHSVSESPGKTVTISCTCSSGSIASNYVQWYQQRPGSSPTTVIYEDNQRPSGVPDRFSGSIDSSSNSASLTISGLKTEDEADYYCQSYDSSNWVFGGGTKLTVL
B9: C1309 (protein)
chain 1: VQLVESGGGVVQPGRSLRLSCAASGFTFSTYGMHWVRQAPGKGLEWVAVISYDGSNKYYADSVKGRFTISRDNSKNTLYLQMNSLRAEDTAVYYCAKDARGRYYYDSSGYFDYWGQGTLVTVSS
chain 2: IRMTQSPSSLSASVGDRVTITCQASQDISNYLNWYQQKPGKAPKLLIYDASNLETGVPSRFSGSGSGTDFTFTISSLQPEDIATYYCQQYDNLLTFGGGTKVEIK
B10: C1276 (protein)
chain 1: QVQLVQSGAEVEKPGASVKVSCKASGYSFSNYYIHWVRQAPGQGLEWMGIINPSAGSTTYAQKFQGRVTLTTDTSTNTVYMELSSLRSEDTAVYYCARDWGGIPAATYFDPWGQGTLVTVSS
chain 2: EIVLTQSPATLSFSPGERATLSCRASQSVGSYLAWYQQRPGQAPRLLIYDASNRATAIPARFSGSGSGTDFTLTISSLEPEDFAVYYCQQRSNGYTFGQGTKLEIK
B11: C1312 (protein)
chain 1: VQLVESGGGVVQPGRSLRLSCAASGFTFSSYGMHWVRQAPGKGLEWVAVISYDGSNKYYADSVKGRFTISRDNSKNTLYLQMNSLRTEDTAVYYCAKAPRGYYDSSGYYRLQDYFDYWGQGTLVTVSS
chain 2: AIRMTQSPSSLSASVGDRVTITCRASQGISSALAWYQQKPGKAPKLLINDASSLESGVPSRFSGSGSGTDFTLTISSLQPEDFATYFCQQFNSYPLIFGGGTKVEIK
B12: C1201 (protein)
chain 1: QVQLQESGPGLVKPSQTLSLTCTVSGGSISRGVYYWNWIRQHPGKGLEWIGYIYSSGSTYYNPSLESRLTILLDTSKNQFSLRLNSVTAADTAVYYCASGRVPYYFDSWGQGALVTVSS
chain 2: QSVLTQPPSVSGAPGQRVTISCTGSASNIGAGFDVHWYQQLPGAAPRLLIYGNNNRPSGVPDRFSGSKSGTSASLAITGLQAEDEADYYCQSYDSKLSGPYVFGTGTKVAVL
B13: C1310 (protein)
chain 1: EVQLVESGGGLIQPGGSLRLSCVASGFTVRSTYMSWVRQAPGKGLEWVSTIYIANSAYYADSVKGRFTISRDNSKNTVFLQMNSLRAEDTAVYYCAREGSLEVAGPKLDAFDIWGQGTMVTVSS
chain 2: DIQLTQSPSSLSASVGDRVTITCRASQSISSYLNWYQQKPGKAPKLLIYAASSLQSGVPSRFSGSGSGTDFTLTISNLQPEDFATYYCQQSYSTRSITFGQGTRLEIK
B14: C1203 (protein)
chain 1: QVQLQESGPGLLKPSETLSLMCTVSGGSIGSYYWSWIRQPPGKGLEWIGYVYESGGTNYNPSLRSRVTISVDTSKNQFSLKLRSVTAADTAVYYCARERSAVTTWGSAAFHIWGHGTMVTVSS
chain 2: DIQMTQSPSSLSASVGDRVTITCQATQDISNYLNWYQQKPGKAPKLLIYDASNLETGVPSRFSGSGSGTDFTFTISSLQPEDIATYYCQQYDNLPITFGQGTRLEIK
B15: C1315 (protein)
chain 1: EVQLVQSGAEVKKPGESLKISCKGSGYSFISYWIGWVRQMPGKGLEWMGITYPGDSDTRYSPSFQGQVTISADKSISTAYLQWSSLKASDTAMYYCARTYGSGSYSDFDYWGQGTLVTVSS
chain 2: QSVLTQPPSASGTPGQRVTISCSGSSSNIGGNTVNWYQQLPGTAPKLLIYINNQRPSGVPDRFSGSKSGTSASLAISGLQSEDEADYYCAAWDDSLNGRGVFGGGTKLTVL
B16: C1277 (protein)
chain 1: QLQLQESGPGLVKPSETLSLTCNVSGGSISSSSYYWGWIRQPPGKGLEWIGSFSYSDSPYYNPSLKSRVTISVDTSKNRFSLRLSSVTAADTAVYACARHRTSGTWAPFDAFDIWGQGTMVTVSS
chain 2: EIVMTQSPGTLSVSPGERATLSCRASQSVSSDLAWYQQKPGQTPRLLIYGASTRATGIPARFSGSGSGTEFTLTISSLQSEDFAVYYCQQYKYWGTFGQGTKLEIK

target: SARS-CoV-2 Wuhan-Hu-1 spike pseudovirus; experiment: pseudovirus neutralization IC50; higher = weaker neutralization
Description: (§1)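 Single-round luciferase reporter pseudovirus mixed with antibody dilutions and put on 293T-ACE2 cells for 48 h; signal relative to no-antibody wells, four-parameter fit.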

| Binder | pseudovirus neutralization IC50 |
| --- | --- |
| B1 | 0.259 µg/mL |
| B2 | > 1 µg/mL |
| B3 | 0.216 µg/mL |
| B4 | 0.391 µg/mL |
| B5 | > 1 µg/mL |
| B6 | 0.0761 µg/mL |
| B7 | 0.00692 µg/mL |
| B8 | 0.139 µg/mL |
| B9 | > 1 µg/mL |
| B10 | > 1 µg/mL |
| B11 | 0.159 µg/mL |
| B12 | 0.126 µg/mL |
| B13 | 0.0051 µg/mL |
| B14 | 0.033 µg/mL |
| B15 | 0.144 µg/mL |
| B16 | 0.199 µg/mL |

target: SARS-CoV-2 Wuhan-Hu-1 spike pseudovirus; experiment: pseudovirus neutralization IC90; higher = weaker neutralization
Description: as §1

| Binder | pseudovirus neutralization IC90 |
| --- | --- |
| B1 | > 1 µg/mL |
| B2 | > 1 µg/mL |
| B3 | > 1 µg/mL |
| B4 | > 1 µg/mL |
| B5 | > 1 µg/mL |
| B6 | > 1 µg/mL |
| B7 | 0.0719 µg/mL |
| B8 | > 1 µg/mL |
| B9 | > 1 µg/mL |
| B10 | > 1 µg/mL |
| B11 | > 1 µg/mL |
| B12 | > 1 µg/mL |
| B13 | 0.0676 µg/mL |
| B14 | 0.105 µg/mL |
| B15 | > 1 µg/mL |
| B16 | > 1 µg/mL |

target: SARS-CoV-2 Wuhan-Hu-1 spike receptor-binding domain; experiment: ELISA binding EC50; higher = weaker binding; ELISA of recombinant human antibody on coated antigen, from 10 µg/ml in fourfold dilutions; four-parameter fit.

| Binder | ELISA binding EC50 |
| --- | --- |
| B1 | 0.00311 µg/mL |
| B2 | 0.00306 µg/mL |
| B3 | 0.00263 µg/mL |
| B4 | 0.00306 µg/mL |
| B5 | 0.00305 µg/mL |
| B6 | 0.0031 µg/mL |
| B7 | 0.00219 µg/mL |
| B8 | 0.00335 µg/mL |
| B9 | 0.00249 µg/mL |
| B10 | 0.00509 µg/mL |
| B11 | 0.00293 µg/mL |
| B12 | 0.00241 µg/mL |
| B13 | 0.00336 µg/mL |
| B14 | 0.00252 µg/mL |
| B15 | 0.00408 µg/mL |
| B16 | 0.00243 µg/mL |
